# Test results taken from ChEMBL document CHEMBL4184171, “Design and synthesis of a biaryl series as inhibitors for the bromodomains of CBP/P300” (Bioorg Med Chem Lett, 2018).
# Legend:
# [1] = biological target: Bromodomain-containing protein 4 (Homo sapiens, UniProt O60885)
# in vitro [2] = conditions: rat, microsomes
# in vitro [3] = conditions: mouse, microsomes
# in vitro [4] = conditions: human, microsomes
# in vitro [5] = conditions: rat, plasma
# in vitro [6] = conditions: human, hepatocytes
# in vitro [7] = conditions: mouse, hepatocytes
# hERG (KCNH2) = hERG (KCNH2) (Homo sapiens, UniProt Q12809); experiment: in vitro
# Sequence of hERG (KCNH2) (Q12809 whole entry): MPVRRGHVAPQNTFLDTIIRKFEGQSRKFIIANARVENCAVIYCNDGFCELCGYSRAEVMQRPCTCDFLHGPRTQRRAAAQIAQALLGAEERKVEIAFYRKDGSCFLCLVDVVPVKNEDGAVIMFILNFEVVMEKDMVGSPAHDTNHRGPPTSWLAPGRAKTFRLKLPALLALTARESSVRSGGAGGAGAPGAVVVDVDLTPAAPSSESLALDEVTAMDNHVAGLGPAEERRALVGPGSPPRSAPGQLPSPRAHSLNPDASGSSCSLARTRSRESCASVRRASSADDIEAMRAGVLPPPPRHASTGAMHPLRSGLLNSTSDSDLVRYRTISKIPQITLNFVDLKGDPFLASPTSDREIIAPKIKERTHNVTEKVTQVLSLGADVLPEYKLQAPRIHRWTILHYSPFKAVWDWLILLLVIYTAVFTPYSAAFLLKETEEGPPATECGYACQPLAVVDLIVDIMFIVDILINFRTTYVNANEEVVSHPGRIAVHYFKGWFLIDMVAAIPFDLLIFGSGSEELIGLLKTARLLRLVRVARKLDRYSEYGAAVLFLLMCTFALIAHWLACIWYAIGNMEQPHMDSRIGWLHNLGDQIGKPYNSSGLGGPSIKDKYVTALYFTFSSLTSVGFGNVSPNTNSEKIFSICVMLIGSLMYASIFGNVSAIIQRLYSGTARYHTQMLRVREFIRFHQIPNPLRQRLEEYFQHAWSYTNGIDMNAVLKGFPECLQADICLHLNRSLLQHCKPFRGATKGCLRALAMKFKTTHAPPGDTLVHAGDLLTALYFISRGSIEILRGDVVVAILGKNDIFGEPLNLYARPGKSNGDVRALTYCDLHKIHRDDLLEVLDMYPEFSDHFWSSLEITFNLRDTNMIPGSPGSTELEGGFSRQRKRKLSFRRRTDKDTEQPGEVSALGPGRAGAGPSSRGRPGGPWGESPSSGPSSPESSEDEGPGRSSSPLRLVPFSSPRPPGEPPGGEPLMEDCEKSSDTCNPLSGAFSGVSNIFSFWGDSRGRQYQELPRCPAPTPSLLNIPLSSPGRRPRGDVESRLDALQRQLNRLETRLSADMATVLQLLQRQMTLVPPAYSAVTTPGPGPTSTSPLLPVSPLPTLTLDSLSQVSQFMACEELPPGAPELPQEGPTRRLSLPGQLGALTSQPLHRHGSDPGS
# in vivo [8] = conditions: CD-1, mouse, iv, 1 mg/kg
# in vivo [9] = conditions: CD-1, mouse, po, 5 mg/kg
# in vitro [10] = conditions: mouse, plasma
# in vitro [11] = conditions: rat, hepatocytes
# in vivo [12] = conditions: CD-1, mouse, iv, 1 mg/kg; remark: listed apart in the source
# in vitro [13] = conditions: dog, MDCK
# in vitro [14] = conditions: human, plasma
# in vivo [15] = conditions: CD-1, mouse
# physchem = conditions: buffer, pH 7.4
structure (smiles),measurement,setting,value
COc1cc(-c2nn(C3CCOCC3)c3c2CN(C(C)=O)CC3)c2cnccc2c1,IC50,[1],8.9 µM
CC(=O)N1CCc2c(c(-c3cccc4cc(-c5cnn(C)c5C(F)F)ncc34)nn2C2CCOCC2)C1,CLhep predicted,in vitro [2],22 mL/min/kg
same,CLhep predicted,in vitro [3],51 mL/min/kg
same,CLhep predicted,in vitro [4],16 mL/min/kg
same,IC50,[1],3.3 µM
CC(=O)N1CCc2c(c(-c3ccc(C)c4ccncc34)nn2C2CCOCC2)C1,IC50,[1],7.7 µM
CC(=O)N1CCc2c(c(-c3ccc(C#N)c4ccncc34)nn2C2CCOCC2)C1,IC50,[1],> 20 µM
CNC(=O)c1ccc(-c2cc3cccc(-c4nn(C5CCOCC5)c5c4CN(C(C)=O)CC5)c3cn2)cn1,fraction unbound,in vitro [5],0.04
same,CLhep predicted,in vitro [2],15 mL/min/kg
same,CLhep predicted,in vitro [6],< 6 mL/min/kg
same,CLhep predicted,in vitro [7],< 21 mL/min/kg
same,"inhibition at 1 h, 10 µM",hERG (KCNH2),-5%
same,CLhep predicted,in vitro [3],36 mL/min/kg
same,clearance,in vivo [8],18 mL/min/kg
same,CLhep predicted,in vitro [4],9.3 mL/min/kg
same,bioavailability,in vivo [9],50%
same,fraction unbound,in vitro [10],0.1
same,CLhep predicted,in vitro [11],10 mL/min/kg
same,Vd,in vivo [12],2.8 L/kg
same,Papp A→B,in vitro [13],12 ×10⁻⁶ cm/s
same,fraction unbound,in vitro [14],0.05
same,half-life,in vivo [15],2 h
CC(=O)N1CCc2c(c(-c3nccc4ccccc34)nn2C2CCOCC2)C1,IC50,[1],> 20 µM
CC(=O)N1CCc2c(c(-c3cc(C#N)cc4ccncc34)nn2C2CCOCC2)C1,IC50,[1],> 20 µM
CNC(=O)N1CCc2c(c(-c3cccc4cc(-c5cnn(C)c5)c(C(F)F)cc34)nn2C2CCOCC2)C1,fraction unbound,in vitro [5],0.06
same,CLhep predicted,in vitro [2],18 mL/min/kg
same,CLhep predicted,in vitro [6],< 6 mL/min/kg
same,CLhep predicted,in vitro [7],< 21 mL/min/kg
same,CLhep predicted,in vitro [3],35 mL/min/kg
same,clearance,in vivo [8],5.2 mL/min/kg
same,CLhep predicted,in vitro [4],10 mL/min/kg
same,bioavailability,in vivo [9],73%
same,fraction unbound,in vitro [10],0.06
same,CLhep predicted,in vitro [11],< 10 mL/min/kg
same,IC50,[1],5.1 µM
same,Vd,in vivo [12],0.6 L/kg
same,Papp A→B,in vitro [13],19 ×10⁻⁶ cm/s
same,fraction unbound,in vitro [14],0.16
same,solubility kinetic,physchem,95 µM
same,half-life,in vivo [15],1.4 h
CC(=O)N1CCc2c(c(-c3cc(Cl)cc4ccncc34)nn2C2CCOCC2)C1,IC50,[1],19 µM
CC(=O)N1CCc2c(c(-c3ccc(Cl)c4ccncc34)nn2C2CCOCC2)C1,IC50,[1],> 20 µM
CCc1cncc2c(-c3nn(C4CCOCC4)c4c3CN(C(C)=O)CC4)cccc12,IC50,[1],15 µM
CC(=O)N1CCc2c(c(-c3cccc4cc(-c5cnn(C)c5C#N)ncc34)nn2C2CCOCC2)C1,CLhep predicted,in vitro [2],20 mL/min/kg
same,CLhep predicted,in vitro [3],36 mL/min/kg
same,CLhep predicted,in vitro [4],11 mL/min/kg
CC(=O)N1CCc2c(c(-c3cccc4c(Cl)cncc34)nn2C2CCOCC2)C1,IC50,[1],14 µM
CC(=O)N1CCc2c(c(-c3cccc4cc(-c5cn(C)nc5C(F)F)ncc34)nn2C2CCOCC2)C1,CLhep predicted,in vitro [3],38 mL/min/kg
same,CLhep predicted,in vitro [4],13 mL/min/kg
same,IC50,[1],2.8 µM
CC(=O)N1CCc2c(c(-c3cccc4c(CO)cncc34)nn2C2CCOCC2)C1,IC50,[1],> 20 µM
CC(=O)N1CCc2c(c(-c3ccc(CO)c4ccncc34)nn2C2CCOCC2)C1,IC50,[1],> 20 µM
CCc1cc(-c2nn(C3CCOCC3)c3c2CN(C(C)=O)CC3)c2cnccc2c1,IC50,[1],7.8 µM
CC(=O)N1CCc2c(c(-c3cccc4c3CC(=O)NC4)nn2C2CCOCC2)C1,IC50,[1],> 20 µM
CC(=O)N1CCc2c(c(-c3cccc4c(C#N)cncc34)nn2C2CCOCC2)C1,IC50,[1],> 20 µM
